Source: PubChem BioAssay AID360 (National Center for Advancing Translational Sciences (NCATS), 2006)
In all, about 48,000 compounds went through this assay and about 550 (1.1%) were called active. About 4% were inconclusive and are not listed. No stated cut-off is given here; in the data, active means potency below about 15 µM; inconclusive means mostly about 16 µM to 33 µM; inactive means weaker than that. The list shows a part of the results.

These molecules were tested against Lysosomal acid glucosylceramidase (Homo sapiens) (UniProt P04062) (assay: Glucocerebrosidase). Conditions: purified enzyme, resorufin glucoside fluorescence (screen aimed at inhibitors), 20 min.
Outline: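 Compounds titrated against 0.2 nM normal enzyme, 30 uM resorufin beta-D-glucopyranoside substrate, citrate/phosphate buffer with taurocholate and tween-20, pH 5.9. Reaction ran 20 min at room temperature; fluorescence (Ex 548/Em 600) gave AC50.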
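Further: the screen sought inhibitors.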
Potency means the concentration at half of the fitted maximal effect.

Sequence of UniProt P04062 (P04062 whole entry, looked up): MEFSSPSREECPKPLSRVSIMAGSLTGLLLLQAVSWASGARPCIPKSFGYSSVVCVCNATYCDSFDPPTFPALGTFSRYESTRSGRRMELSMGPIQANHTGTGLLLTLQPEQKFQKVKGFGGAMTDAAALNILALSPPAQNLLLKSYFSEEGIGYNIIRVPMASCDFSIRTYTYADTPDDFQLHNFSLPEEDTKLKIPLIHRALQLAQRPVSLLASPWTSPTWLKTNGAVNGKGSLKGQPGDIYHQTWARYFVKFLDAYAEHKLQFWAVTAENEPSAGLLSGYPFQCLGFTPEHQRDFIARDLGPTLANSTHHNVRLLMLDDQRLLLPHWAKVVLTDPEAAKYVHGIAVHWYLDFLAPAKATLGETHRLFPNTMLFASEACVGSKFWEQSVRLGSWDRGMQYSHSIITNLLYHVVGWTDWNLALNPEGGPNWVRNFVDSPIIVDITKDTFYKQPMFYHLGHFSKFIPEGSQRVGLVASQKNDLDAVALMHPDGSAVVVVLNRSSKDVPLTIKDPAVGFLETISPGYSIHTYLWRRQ

Potency, inactive:
CC(C)OCCCN1C(=O)c2[nH]nc(-c3ccccc3O)c2C1c1cccc(Cl)c1 (stereo unspecified) > 76.9 µM, COc1cc(NC(=O)c2cccs2)ccc1NC(=O)c1ccco1 > 76.9 µM, CCOc1ccccc1-c1nc(C(N)=O)c2[nH]c(=O)n(-c3ccccc3)c2n1 > 76.9 µM, CCn1c(SCC(=O)Nc2ccc3c(c2)OCCO3)nnc1-c1ccco1 > 76.9 µM, N#Cc1c(N)nc2c(c1-c1ccncc1)CCCCCC2 > 76.9 µM, O=C1CCC(c2ccccc2)N1C(=O)c1cccnc1 (stereo unspecified) > 76.9 µM, COc1ccc(-c2cc(C(F)(F)F)nc(N3CCN(Cc4ccccc4)CC3)n2)cc1OC > 76.9 µM, CC(=O)Nc1ccc(S(=O)(=O)Nc2cc(C)c(-n3nc4ccccc4n3)cc2O)cc1 > 76.9 µM, Cc1nc2ccccc2n1S(=O)(=O)c1ccc(S(=O)(=O)N2CCCCCC2)cc1 > 76.9 µM, N#Cc1ccccc1S(=O)(=O)N1CCN(c2ccc(S(=O)(=O)N3CCOCC3)cn2)CC1 > 76.9 µM, O=c1c2[nH]c3ccc(F)cc3c2ncn1C1CCCCC1 > 76.9 µM, Cc1ccc(C(=O)Cn2nnc(-c3ccccc3-n3cnnn3)n2)cc1 > 76.9 µM, O=C(C1CC1)N1CCc2cc(S(=O)(=O)N3CCCc4ccccc43)ccc21 > 76.9 µM, CCOC(=O)CN1C(=O)C(C)(C)Oc2ccc(C(=O)Nc3ccccc3)cc21 > 76.9 µM, COc1cc(SC)ccc1C(=O)Nc1ccon1 > 76.9 µM, CC(C)OCCCNC(=O)c1cccs1 > 76.9 µM, COc1cccc(-n2nnnc2SCC(=O)N2CCCc3ccccc32)c1 > 76.9 µM, CCOC(=O)c1oc2c(O)c(O)ccc2c(=O)c1-c1nncn1-c1ccccc1 > 76.9 µM, Cc1cccc(-n2c(N)cc(=O)nc2SCC(=O)Nc2ccccc2)c1 > 76.9 µM, c1ccc(CC2CCN(c3nc4ccccc4n4nnnc34)CC2)cc1 > 76.9 µM, O=C(Nc1ccncc1)C1(c2ccccc2)CCCC1 > 76.9 µM, COC(=O)c1cccc(S(=O)(=O)N(Cc2ccco2)Cc2cc3ccc(OC)cc3[nH]c2=O)c1 > 76.9 µM, CCOC(=O)N1CCC(Nc2c(Nc3ccc(C)c(C)c3)c(=O)c2=O)CC1 > 76.9 µM, CC(=O)c1ccc(N2CCN(S(=O)(=O)c3cccc(S(=O)(=O)N4CCOCC4)c3)CC2)cc1 > 76.9 µM, CC1(C)NC(=O)N(CCCCOc2ccc3c(c2)CCC3)C1=O > 76.9 µM, CC(Sc1ccccc1)C(=O)Nc1ccc(S(=O)(=O)N2CCOCC2)cc1 (stereo unspecified) > 76.9 µM, O=C(CN1CCN(c2ccc(F)cc2)CC1)OCc1ccccc1 > 76.9 µM, COc1cccc(-c2nnc(SCC(=O)N3CCCC3=O)n2-c2ccccc2)c1 > 76.9 µM, C=CCn1cc(C(=O)OC)c(=O)c2cc(S(=O)(=O)N3CCC(C)CC3)ccc21 > 76.9 µM, O=C(COc1ccc(Cl)cc1)Nc1ccccc1C(=O)NCc1ccco1 > 76.9 µM, Cn1c(NCc2cccc(Br)c2)nc2ccccc21 > 76.9 µM, CCc1nnc(NC=C2C(=O)OC(C)(C)OC2=O)s1 > 76.9 µM, Cc1nn(Cc2ccccc2Cl)c(C)c1NC(=O)C1C2CCC(O2)C1C(=O)O (stereo unspecified) > 76.9 µM, O=C1CN(C(=O)CC2c3ccccc3-c3ccccc32)CC(=O)N1 > 76.9 µM, O=c1c2c(nc3nc(COc4ccccc4)[nH]n13)CCC2 > 76.9 µM, Cc1c(C(=O)O)oc2c1C(O)CC(C)(C)C2 (stereo unspecified) > 76.9 µM, Cc1nc2c3c(-c4ccccc4)c(-c4ccccc4)oc3ncn2n1 > 76.9 µM, O=C(CN(C(=O)c1cc2c(s1)CCC2)C1CCCC1)NCc1cccs1 > 76.9 µM, Cc1ccc(NC(=O)Cn2nc(C)c3ccccc3c2=O)cc1F > 76.9 µM, OCCN1CCOCCN(CCO)CCOCC1 > 76.9 µM, COC(=O)c1ccccc1NC(=O)CN(c1ccccc1)S(=O)(=O)N(C)C > 76.9 µM, Cc1ccc(-c2ccc(S(=O)(=O)N3CCN(C)CC3)cc2)cc1, CCS(=O)(=O)N1CCC(C(=O)Nc2cccc(C(C)=O)c2)CC1 > 76.9 µM, O=C(O)CC1SC(=O)N(Cc2ccccc2)C1=O (stereo unspecified) > 76.9 µM, O=C(O)[C@@H]1CCCN1c1ncnc2sc3c(c12)CCC3 > 76.9 µM, Cc1ccc(S(=O)(=O)N2CCCC(C(=O)NCCCN3CCCCC3C)C2)cc1 (stereo unspecified) > 76.9 µM, COc1cccc(-c2nnc3n2N=C(c2cccc(Br)c2)CS3)c1 > 76.9 µM, O=C(O)CCC(=O)N1CCN(c2nc3ccccc3s2)CC1 > 76.9 µM, CCCS(=O)(=O)N1CCCC(C(=O)N2CCOCC2)C1 (stereo unspecified) > 76.9 µM, CN(C(=O)c1cc2sccc2n1C)C1CCCCC1 > 76.9 µM, O=C(CN(C(=O)CCC(=O)Nc1ccccn1)c1ccc2c(c1)OCCO2)NCCc1ccccc1 > 76.9 µM, Cc1csc(=N)n1CC(=O)N1CCc2ccccc21 > 76.9 µM, COc1ccc(Br)cc1-c1noc(-c2ccncc2)n1 > 76.9 µM, CC(C)Cc1nc(SCC(=O)NCc2ccccc2)n[nH]1 > 76.9 µM, O=c1nc2n(c3ncccc13)CCC2 > 76.9 µM, CC1CCCCN1CCNC(=O)c1ccc2c(=O)n(CCc3ccccc3)c(=O)[nH]c2c1 (stereo unspecified) > 76.9 µM, O=C(CN1C(=O)CSC1=O)Nc1ccc(F)c(F)c1F > 76.9 µM, O=C(C1CCN(S(=O)(=O)c2cccnc2)CC1)N1CCN(C2CCCC2)CC1 > 76.9 µM, O=C1CCCC2=C1C1(CCCC1)N=C(Nc1nc3ccccc3o1)N2 > 76.9 µM, C=CCn1c(N)c(C(=O)Nc2ccccc2OC)sc1=S > 76.9 µM, O=c1cc(O)n(-c2ccccc2F)c(=S)[nH]1 > 76.9 µM, N#Cc1nc(COc2ccc(Cl)cc2)oc1N1CCCCCC1 > 76.9 µM, COc1ccc(N(C(=O)C(C)C)S(=O)(=O)c2ccc3c(c2)n(C)c(=O)n3C)cc1 > 76.9 µM, CCOc1ccccc1Nc1ncccc1C(=O)N1CCCC1 > 76.9 µM, O=C1c2ccccc2C(=O)N1CCc1nn[nH]n1 > 76.9 µM, Cc1cc(C(=O)OCCO)c(C#N)c(N)n1 > 76.9 µM, O=CN1CCN(C2CC(=O)N(c3ccc4c(c3)OCO4)C2=O)CC1 (stereo unspecified) > 76.9 µM, COCCNC(=O)C(c1ccc(C)o1)N(C(=O)c1snc(C(N)=O)c1N)c1ccc(C)cc1 (stereo unspecified) > 76.9 µM, Cn1c(SCC(=O)NC(C)(C)C)nnc1-c1ccc(C(C)(C)C)cc1 > 76.9 µM, CCC1=C/C(=C/N(C)c2ccccc2)C(=O)S1 > 15.4 µM, N=c1c(C(=O)NCC2CCCO2)cc2c(=O)n3ccccc3nc2n1Cc1cccnc1 (stereo unspecified) > 76.9 µM, O=c1cc(NCC2CCCO2)[nH]c(=O)n1-c1ccc(Cl)cc1 (stereo unspecified) > 76.9 µM, NCC(O)COc1ccc2c(c1)OCO2 (stereo unspecified) > 76.9 µM, c1ccc(Oc2cc(-n3cccn3)ncn2)cc1 > 76.9 µM, Cc1nn(C)cc1CN(C)C(=O)c1nn2c(c1Cl)NC(c1cccs1)CC2C(F)(F)F (stereo unspecified) > 76.9 µM, CN(Cc1ccccc1)C(=O)COC(=O)c1ccc2c(c1)OCO2 > 76.9 µM, O=C(COC(=O)c1ccccn1)Nc1nccs1 > 76.9 µM, O=S(=O)(c1ccc(S(=O)(=O)N(Cc2ccc(F)cc2)C2CCCC2)cc1)N1CCCC1 > 76.9 µM, Cc1ccccc1-n1nc(C)c2cc(C(=O)NCc3cccnc3)sc21 > 76.9 µM, Cc1ccc(N(C(C)C(=O)Nc2ccccc2C(=O)N2CCOCC2)S(C)(=O)=O)cc1C (stereo unspecified) > 76.9 µM, O=C(CSc1nnc(CNc2ccccc2)o1)N1CCc2ccccc21 > 76.9 µM, CC(C)(C)NC(=O)Cn1nnnc1-c1nonc1N > 76.9 µM, CCOC(=O)C1CCCN(Cc2cc(Br)c(OC)cc2OC)C1 (stereo unspecified) > 76.9 µM, COc1ccc(C2(O)CCN(C(=O)NC3CCCCC3)CC2)cc1 > 76.9 µM, CC(=O)OCC(=O)NCc1ccc2c(c1)OCO2 > 76.9 µM, CCCCNS(=O)(=O)c1ccc(OC)c2ncccc12 > 76.9 µM, COCCNc1nc(C(C)(C)C)nc2c1nnn2Cc1ccccc1Cl > 76.9 µM, COc1ccccc1-c1noc(CCC(=O)Nc2ccccc2Cl)n1 > 76.9 µM, COc1ccc(OC)c(S(=O)(=O)N(C)CC(=O)N2CCc3ccccc3C2)c1 > 76.9 µM, CCn1c(=O)c(C(C)=O)nc2ccccc21 > 76.9 µM, O=C(CN1C(=O)NC2(CCCC2)C1=O)Nc1nc(-c2ccc(F)cc2)cs1 > 76.9 µM
